Read counts are not given, so values of variants with three or more changes are uncertain.
B1: LINE1-mini (parent)
chain: GGCAGAGCUCAACACAGCGUGGCAAAGUGGCUGUGGCUAGACUGCC

Variants of: B1
Test: self-cleavage, relative activity (ratio to wild type); higher = more cleavage; in vitro, sequencing; the parent is a self-cleaving ribozyme

| Variant | self-cleavage |
| --- | --- |
| U20A U34C G44U | 0.3 |
| U20G G35U C37U | 0 |
| G22C G29U G40A A41G C42U | 0.09 |
| U20G A25G C37A | 0.02 |
| G21U C31G G36U | 0.04 |
| G21U C31A C37U | 0.02 |
| G21A U34A C37U C46U | 0.01 |
| G21A C31U C45U | 0.34 |
| G22U A24G G29A | 0.94 |
| G21C G30U U43A C45A | 0.05 |
| G21C G27C U28A | 0.47 |
| G21U C31A C42A | 0.05 |
| G21C G27A U38G A39U | 0.05 |
| G22A A24G C37U | 0.02 |
| U20G G21A G40A | 0.01 |
| U20G A25C U28A G30A A41U | 0.05 |
| G21U G22A U34C G36U | 0.19 |
| G22A G30C C31G G36C | 0.09 |
| G22C U34A C37G C42A U43G | 0.01 |
| U20C G29C U32G | 0.55 |
| U20G U32A G36A | 0.02 |
| U20G G36U G40C | 0.13 |
| G21C A39C G44U C45G | 0.02 |
| U20G A24C G29A U34A G44U | 0.08 |

| Variant | self-cleavage |
| --- | --- |
| U20C G29U G35C | 0.04 |
| G21C G22A U28G | 0.13 |
| G22C G29A G40A | 0.07 |
| G21A G29A C37A | 0.44 |
| G22A C23A C37A | 0.01 |
| U20G A39U U43A | 0.32 |
| G22A G36U C45G | 0.09 |
| U20C A24U G35A | 0.01 |
| U20C G35C U38C | 0.02 |
| G21A G22U A26U U43G G44U | 0.24 |
| G21U A41U C46U | 0.16 |
| G21U G27C G35A | 0.14 |
| G21A C23G A26C C42U | 0 |
| G21U G36A C46A | 0.52 |
| G22C C23U A39U | 0.46 |
| G21U G30U C42U G44C | 0.02 |
| G22C G30A C37U | 0.07 |
| G22A U28C G29U C37A U43A | 0.02 |
| G21C G29A G44U | 0.14 |
| U20A U28A C31U | 0.36 |
| U20C G21A G22C A41C U43C C46A | 0.05 |
| G21C A26G G27U | 0.22 |
| G22A G35C G36U U38C | 0.07 |
| G21A U28A A41U | 1.78 |

| Variant | self-cleavage |
| --- | --- |
| G21U U34A G36A C37G | 0.02 |
| U20C G22C U32G | 0.06 |
| U20G G35A A41C | 0.01 |
| G22A A41G C42A | 0.05 |
| G22A C31A C46G | 0.14 |
| U20C A26C C42G | 0.08 |
| G21A U43A C46G | 0 |
| G21U C23G A41C | 0.04 |
| U20G C23G U28A | 0.93 |
| U20G G21A G29C A39G | 0.04 |
| U20C G22C A24U | 0.19 |
| U20G G22C C45A | 0.11 |
| U20C C45U C46A | 0.12 |
| U20C C31A A39G | 0.03 |
| U20C A24G G29C C37G | 0 |
| U20A G30U G36U C37U G40A | 0.07 |
| G21A G35A C42G | 0.08 |
| G22C C23U G30U C45U C46G | 0.14 |
| G22A G29U C31A U32A | 0.05 |
| G21U A25G G35C | 0.06 |
| U20G A41U G44A | 0.06 |
| G21A A24G G44C | 0.46 |
| G22A C23G G29U | 0.16 |
| U20C G21C G22A A25C | 0.23 |

| Variant | self-cleavage |
| --- | --- |
| G21C U28G C46U | 1.63 |
| U20G A41C C46A | 0 |
| U20C G22C A25C | 0.19 |
| G22A G29A U38G | 0.01 |
| G21A G29U G40U C45A | 0.05 |
| G22A U43A C45U | 0.09 |
| G21U A25C U34C G40U C42A | 0.03 |
| G21A G29U C46U | 1.45 |
| U20G G21A G33C | 0.04 |
| G21A G40C G44C | 0.07 |
| G21U U34G U43A | 0.01 |
| U20C C31G G36U | 0.02 |
| U20C G22C A24C A26C G27U U34G G44C | 0.01 |
| G22C C37A C46A | 0.07 |
| U20C G22U G27C | 0.6 |
| U20G G22A G36C G44U | 0.05 |
| U20C G35C G40U | 0 |
| U20G A26G G44C | 0.01 |
| G21A A26U U32C | 0.08 |
| G21C G33U G36A | 0.09 |
| G21C G22U G33U | 0.19 |
| G22A A26U G44A C45U C46A | 0.02 |
| U20G G21A U32G C42G U43G | 0.03 |
| U20G U34A G36U | 0.02 |

| Variant | self-cleavage |
| --- | --- |
| G22C A26G G33U | 0.22 |
| U20G C42A G44U | 0.02 |
| U20G A24U A39G U43G | 0.05 |
| U20C A26U G36A | 0.02 |
| U20C C23G G27U | 0.15 |
| G21U A24G U38C | 0.09 |
| U20C G22C U28A | 0.57 |
| G22A G33C C37U C42U | 0.05 |
| G22C U28A G30U C45A | 0.11 |
| G22A C23U C37G C45A | 0.02 |
| U20G A26U U34G A41G | 0 |
| G22A U34G U43C | 0.01 |
| G21U G29C A39C | 0.03 |
| G21U G27A U38C | 0.87 |
| G21A A25G C42A G44C C45G | 0.08 |
| U20A U34G A41C | 0.02 |
| G22C U34G C37U | 0.04 |
| G22C C42A C46A | 0.08 |
| G21U G35U G40A C46U | 0.21 |
| U20C C31U C42U | 0.13 |
| U20G U34G G36U | 0.02 |
| G21U U38C G40A | 0.11 |
| G22A A24C G33U C42G C46U | 0.14 |
| G21U A26U C31A U34G | 0.03 |

| Variant | self-cleavage |
| --- | --- |
| G22A G35U C46G | 0.39 |
| G21C G29U G30U A41U | 0.34 |
| G22A C23A U28C G40C C45A | 0.04 |
| G22C G36U G40A | 0.05 |
| G22C U28A G29C C37G C46A | 0.01 |
| G22A C23A G29C U32C | 0.91 |
| U20G G21U C37A C42G | 0.02 |
| U20G G30C G35C A41U | 0.02 |
| G21C G36U C37A | 0.06 |
| G21U G36A C37U G40C | 0.15 |
| G22C G29C C42A | 0.02 |
| G21A C31U U34G | 0.03 |
| G21A C23U C42U | 0.27 |
| G22U A26G U38G | 0.02 |
| U20C U43A C46U | 0.01 |
| G21C C23U A24U C42A | 0.3 |
| U20A U28C G44C | 0.25 |
| G21C A25U G30C C31A | 0.21 |
| G21C A25U C42U | 0.1 |
| G21U G36A G44U C46U | 0.06 |
| G21U U28A G29U G36U | 0.03 |
| U20C G33A G40U | 0.3 |
| U20G G33C G36C C46A | 0.03 |
| G21U G33U A39U | 0.19 |

| Variant | self-cleavage |
| --- | --- |
| U20G G21C A39G | 0.04 |
| G22A C23G U28A | 0.33 |
| U20C A26C G30A | 0.18 |
| U20A U38A G40U C46U | 0.03 |
| G22A G29C A41G | 0.16 |
| U20C C23G A26G G35U | 0.18 |
| G22C A24U C37A | 0.08 |
| G22A C23A G40A | 0.06 |
| G21C G29A U38A | 0.17 |
| G21C G22C G30U | 0.54 |
| U20G A25U G27U | 0.24 |
| G21C C23U C37U A41U C46G | 0.22 |
| G22A G27U C46U | 0.59 |
| U20G G40U U43A | 0.01 |
| G22A U28G C31G | 0.1 |
| U20A G35C C37A | 0.04 |
| U20G G30U G35U G40U | 0 |
| G22A A26C G35C | 0.24 |
| G21C A26G A39G | 0.03 |
| G22A G30U G40U | 0.17 |
| G22A G29U G36U C37G | 0.02 |
| G21U A25G C37U A39C | 0.1 |
| G21C U28A U32C | 0.35 |
